{
  "source": "the antibiotic and cytotoxicity screens of Wong et al. (2023)",
  "note": "The list shows a part of the results.",
  "data": [
    {"tested_on": "HSkMC (human skeletal muscle cells)", "assay": "cytotoxicity call (relative viability < 0.9)", "conditions": "10 µM", "values": [
      {"smiles": "C[C@H]1CCCCO[C@H](CN(C)Cc2ccccc2)[C@@H](C)CN([C@@H](C)CO)C(=O)c2cc(NC(=O)Nc3cccc4ccccc34)ccc2O1", "cytotoxicity call": "active"},
      {"smiles": "CN(C)CC(=O)N1CC(=O)N2[C@@H](CO)[C@@H](c3ccc(C#Cc4cccnc4)cc3)[C@@H]2C1", "cytotoxicity call": "inactive"},
      {"smiles": "c1ccc(-c2cc(-c3nc4ccccc4[nH]3)c3ccccc3n2)cc1", "cytotoxicity call": "inactive"},
      {"smiles": "COc1ccc(NC(=O)N(C)C[C@H]2Oc3ccc(NC(=O)C4CC4)cc3C(=O)N([C@H](C)CO)C[C@H]2C)cc1", "cytotoxicity call": "inactive"},
      {"smiles": "C[C@H](CO)N1C[C@H](C)[C@H](CN(C)C(=O)Nc2cccc3ccccc23)OCCCC[C@H](C)Oc2ccc(NS(=O)(=O)c3ccc(F)cc3)cc2C1=O", "cytotoxicity call": "inactive"},
      {"smiles": "CCCNC(=O)N[C@@H]1C=C[C@H](CC(=O)N2CCN(C)CC2)O[C@@H]1CO", "cytotoxicity call": "inactive"},
      {"smiles": "C[C@@H]1CN([C@H](C)CO)C(=O)Cc2cc(N(C)C)ccc2O[C@H]1CN(C)C(=O)Nc1ccc2c(c1)OCO2", "cytotoxicity call": "inactive"},
      {"smiles": "C[C@H]1CCCCO[C@@H](CN(C)Cc2ccc3c(c2)OCO3)[C@@H](C)CN([C@@H](C)CO)C(=O)c2cc(NC(=O)Nc3ccc(F)cc3)ccc2O1", "cytotoxicity call": "inactive"}
    ]},
    {"tested_on": "HepG2", "assay": "cytotoxicity call (relative viability < 0.9)", "conditions": "10 µM", "values": [
      {"smiles": "C[C@H](CO)N1C[C@H](C)[C@@H](CN(C)S(=O)(=O)c2cn(C)cn2)Oc2ccc(NC(=O)C3CC3)cc2CC1=O", "cytotoxicity call": "inactive"},
      {"smiles": "Cc1cc([N+](=O)[O-])nn1CC(=O)NC(C)C", "cytotoxicity call": "inactive"},
      {"smiles": "C[C@@H]1CN([C@@H](C)CO)C(=O)Cc2cc(NS(=O)(=O)c3cccs3)ccc2O[C@@H]1CN(C)Cc1ccc(-c2ccccc2)cc1", "cytotoxicity call": "inactive"},
      {"smiles": "CN(C)CCCNC(=O)C[C@H]1CC[C@H]2[C@H](COc3ccc(NC(=O)c4cccc(F)c4)cc3C(=O)N2C)O1", "cytotoxicity call": "inactive"},
      {"smiles": "O=C(Cn1ccc([N+](=O)[O-])n1)n1cccn1", "cytotoxicity call": "inactive"},
      {"smiles": "COc1ccc(NC(=O)Nc2ccc3c(c2)C(=O)N([C@@H](C)CO)C[C@H](C)[C@H](CN(C)S(=O)(=O)c2ccc(C)cc2)OCCCC[C@H](C)O3)cc1", "cytotoxicity call": "active"},
      {"smiles": "COC(=O)c1cn(CC(=O)O)nn1", "cytotoxicity call": "inactive"},
      {"smiles": "C[C@@H]1CN([C@@H](C)CO)C(=O)c2cc(NC(=O)c3ccncc3)ccc2O[C@@H]1CN(C)C(=O)Nc1ccc2c(c1)OCO2", "cytotoxicity call": "inactive"},
      {"smiles": "O=C(Nc1ccc([N+](=O)[O-])cc1Cl)c1cc(Cl)ccc1O", "cytotoxicity call": "active"},
      {"smiles": "Cc1ccc(S(=O)(=O)N2C[C@H](O)COC[C@H]3O[C@H](CC(=O)NCc4ccc5c(c4)OCO5)CC[C@@H]32)cc1", "cytotoxicity call": "inactive"},
      {"smiles": "C[C@@H]1CN([C@@H](C)CO)C(=O)c2cc(NS(=O)(=O)c3cccs3)ccc2O[C@@H]1CN(C)Cc1ccc(-c2ccccc2)cc1", "cytotoxicity call": "inactive"},
      {"smiles": "COc1ccc(NC(=O)N(C)C[C@@H]2OCCCC[C@H](C)Oc3ccc(NC(=O)c4ccccc4)cc3C(=O)N([C@H](C)CO)C[C@@H]2C)cc1", "cytotoxicity call": "inactive"},
      {"smiles": "Cc1ccc(S(=O)(=O)Nc2ccc3c(c2)C(=O)N([C@H](C)CO)C[C@@H](C)[C@@H](CN(C)C(=O)Cc2ccccc2)OCCCC[C@H](C)O3)cc1", "cytotoxicity call": "inactive"},
      {"smiles": "C[C@@H]1CN([C@@H](C)CO)C(=O)c2cccc(NC(=O)c3ccc(-c4nccs4)cc3)c2O[C@H]1CN(C)C(=O)Nc1ccc(F)cc1", "cytotoxicity call": "inactive"},
      {"smiles": "COCC(=O)N[C@@H]1C=C[C@@H](CC(=O)N2CCCCC2)O[C@H]1CO", "cytotoxicity call": "inactive"},
      {"smiles": "Cc1noc(C)c1NC(=O)Nc1ccc2c(c1)C(=O)N([C@@H](C)CO)C[C@@H](C)[C@H](CN(C)Cc1ccncc1)OCCCC[C@@H](C)O2", "cytotoxicity call": "inactive"},
      {"smiles": "CC(=O)OCC1=C(C(=O)[O-])N2C(=O)C(NC(=O)CSc3ccncc3)C2SC1.[Na+]", "note": "(configuration not stated)", "cytotoxicity call": "inactive"},
      {"smiles": "CC(=O)OCC(=O)C1(O)C(OC(C)=O)CC2C3CCC4=CC(=O)C=CC4(C)C3(F)C(O)CC21C", "note": "(configuration not stated)", "cytotoxicity call": "inactive"},
      {"smiles": "S=C1NCN(Cc2ccncc2)CN1", "cytotoxicity call": "inactive"},
      {"smiles": "Cc1noc(C)c1NC(=O)Nc1ccc2c(c1)C(=O)N([C@H](C)CO)C[C@H](C)[C@H](CN(C)Cc1ccccc1)OCCCC[C@H](C)O2", "cytotoxicity call": "inactive"},
      {"smiles": "Cc1ccc(OC(=O)N(C)C[C@@H]2OCc3ccccc3-c3ccccc3C(=O)N([C@H](C)CO)C[C@H]2C)cc1", "cytotoxicity call": "inactive"},
      {"smiles": "C[C@H]1CN([C@@H](C)CO)S(=O)(=O)c2ccc(Br)cc2O[C@H]1CN(C)S(=O)(=O)c1ccccc1", "cytotoxicity call": "inactive"},
      {"smiles": "N#CC(c1ccc(Cl)cc1)c1c(Cl)cc(-n2ncc(=O)[nH]c2=O)cc1Cl", "note": "(configuration not stated)", "cytotoxicity call": "inactive"},
      {"smiles": "COc1ccc2c(c1)[C@@]1(CC(=O)N(Cc3ccccc3)C1=O)C(=O)N2CCCn1c(=O)n(C)c2ccccc21", "cytotoxicity call": "inactive"}
    ]}
  ]
}
